# Reference: the supplement of paper PMC11417369
# ± gives the standard deviation of the averaged measurements. Some of the results follow.
# Tested on: PfAP2-I AP2 domain 3 (GST-tagged)
# Experiment: gcPBM binding intensity (ln(normalized median fluorescence intensity)); higher = stronger DNA binding
# Summary of the method: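 DNA-binding domains from P. falciparum, fused to GST and produced in E. coli, were put on an Agilent 4 × 180k double-stranded probe array for 1 h in 1× PBS holding 1% milk, 0.2 mg/ml BSA, 0.5% salmon testes DNA and 0.03% Triton X-100. Probes were primer-extended, 36 bp long and drawn from intergenic genomic regions, with negative controls included. After Alexa488 anti-GST antibody detection and a 488 nm scan, binding intensity was set as the highest Masliner-normalised natural-log median intensity across replicate spots of either probe orientation.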
row,Sequence,gcPBM binding intensity (ln)
1,AATTTATTAATACAAAGTACTTTCTAATATGAATTT [XGTACX_site8013],7.57 ± 0.56
2,GTAAGAAACAGACACACACACATATAAATATAAATA [CACACA_site6515],7.84 ± 0.51
3,TATTGAAAAAGTGGAAAAAAGTACATCATACGGGAA [CACACA_negctrl_site1091],8.3 ± 0.54
4,TTCTTAAAAAATCAAACACACATATATATATACATA [CACACA_site2296],7.61 ± 0.45
5,ATAAATAGAATAAAATGTACATGTAATACATATATA [XGTACX_site5475],7.43 ± 0.36
6,GTTTAGATAAAAGGGCGTACATCTATTTTTGACTAA [XGTACX_site7170],7.91 ± 0.56
7,AAAAAAAAAAAAAAAACACACAATTGAATTATTAAG [CACACA_site2864],8.69 ± 0.48
8,TTTTATTATTAAACATGTACCCATATTATTGTTATG [XGTACX_site5563],7.74 ± 0.52
9,AAAAAAAAAAAATATATATATATATATATAATATTT [GTGCAC_negctrl_site678],7.71 ± 0.24
10,GAATAAATAAAAATATGTACATAAATATATATATAT [XGTACX_site8858],9.2 ± 0.2
11,AAAAAAAAATAAAAAAGTACAGGTAAATATATATAT [XGTACX_site5812],8.88 ± 0.25
12,ATACTTTAAAATAATACACACATGGAAAATAAAATT [CACACA_site697],8.11 ± 0.67
13,AAGACAAATATGTATTGTACGAACGCTTTTTAATTA [XGTACX_site1961],7.45 ± 0.69
14,TTTATAAAATATCTTTCACACATTACTATGTATTAT [CACACA_site5148],7.73 ± 0.55
15,ATAAAAGTTTAATATTGTACGAACATGCGTTTCTAA [XGTACX_site1487],7.62 ± 0.32
16,AAAAAAATATATTCCTAATTTATGATTAAAAGGAAT [CACACA_negctrl_site751],7.18 ± 0.42
17,ATAAATTAAACAAACACACACGTTCTTTTATTTACT [CACACA_site4556],7.84 ± 0.57
18,TTTTTTTTTGGGTGTACACATGAATATATATTTTTT [CACACA_site5254],8.39 ± 0.47
19,AGAATTATATCATGGTGTACTTATTTGTTTATTTCT [XGTACX_site5795],7.91 ± 0.67

row,Sequence,gcPBM binding intensity (ln)
1,AAATTTGGTGAAGGATGTACTTTACCTAATACTTGT [XGTACX_site4825],7.67 ± 0.79
2,AAAACAAAAAAATTTTGTACGAAACAATACTGTAAG [XGTACX_site7992],7.53 ± 0.7
3,TATATATATTGTTATTGTACACAAATATAGGAAATA [XGTACX_site7110],8.18 ± 0.83
4,TAAATTTAAAATGACACACACTAAAATTATTTAAGT [CACACA_site4816],7.72 ± 0.52
5,AAATATTCATAGTATACACACATTTATTTATAACCA [CACACA_site6502],7.88 ± 0.52
6,ACCTTTAATATATACACACACATAAAAAAAATATAT [CACACA_site1843],8.66 ± 0.27
7,TAAAAGTATTCCTTTTGTACATATAATGAAAACAAT [XGTACX_site2069],7.77 ± 0.37
8,ATACAATAATATAAATGTACAAATTATATCTTAATT [XGTACX_site6004],7.54 ± 0.4
9,CTATATTTTTAAAAATGTACTTTATAATAAAATACT [XGTACX_site3593],7.83 ± 0.32
10,CTGTTTTTACTAAGTTGTACAAATGATGATACCCTA [XGTACX_site630],8.09 ± 0.36
11,GTATGTATGTATGTATGTACTTATTTATTTATTTAT [XGTACX_site1921],8.88 ± 0.3
12,TAAAATTTACGGTCTTGTTGCGCAACCAACATTGTC [CACACA_negctrl_site1175],8.07 ± 0.79
13,TAATAATAGTAAATATGTACATATATATATATATAG [XGTACX_site4602],7.92 ± 0.42
14,GTTTTTTTTTTTTTGGTGCGTCATTTTCAAAAGAAG [GTGCAC_site9745],9.54 ± 0.18
15,AAAAAAGAAAAGAAATGTACAGAGCTTATCTTTTTA [XGTACX_site5677],7.21 ± 0.71
16,TTTTTTAATTTTACATGTACATACAGGTTTTTTTTT [XGTACX_site4539],7.84 ± 0.58
17,TTCAATTTTACATGTAGTACATAAATTATACACAAA [XGTACX_site4946],8.18 ± 0.2
18,TTATTCCTATTTGGATGTACATTTTAATATAAACAT [XGTACX_site4386],8 ± 0.52
19,ATTAATAAATAAATGACACACACACCCACAAAAAAA [CACACA_site8839],8.42 ± 0.028

row,Sequence,gcPBM binding intensity (ln)
1,AATGATAAAAATAAATGTACAGAATGATATTTTTTT [XGTACX_site5976],7.62 ± 0.61
2,AAAAAATTGTTTCCCTGTACTCAAAAAAAAAAAAAA [XGTACX_site8070],8.09 ± 0.6
3,TAATTTTTATTCAGTTCACACACGCTTTAATATTAT [CACACA_site9147],7.76 ± 0.72
4,AAAAAATATACATATTGTACATTTTTTATTAACACA [XGTACX_site6415],7.62 ± 0.32
5,ATAAATTTACATTTTTTTTTTTTTTTTTTTTTTTTT [GTGCAC_negctrl_site689],9.8
6,GTATAGTACAAATAAGTGCATATAAAAGAAATACAG,10.4 ± 0.24
7,ATTACCAAAAAAAGGTGTACAAATATAATTATGAAA [XGTACX_site44],8.22 ± 0.61
8,ATTTTTTTTCGTAATTGTTCTTAATGTTGAATTATA [CACACA_negctrl_site1135],7.68 ± 0.64
9,TTTTCCTTTCACAATGGTACACAAATATACATGCAA [XGTACX_site7244],8.06 ± 0.47
10,TAGTAATATGTATCCATACACACATACATTTTATTT [CACACA_site873],7.61 ± 0.55
11,CAATTTATAAAGAAAACACACATATACCTATATACA [CACACA_site6710],7.59 ± 0.52
12,TACACGCATAAACACACACACACACCCATATATATA [CACACA_site8114],8.34 ± 0.68
13,TTTATATTTAAAGAAACATGCATTTATCATATATAC [TGCATGCA_site173],7.64 ± 0.67
14,TTTGTTGACGAACACACACACATACATATTTATATA [CACACA_site7141],7.86 ± 0.49
15,AAAAAAATAAAATACAAAATGGCTATACAAAATAAA [GTGCAC_negctrl_site535],7.73 ± 0.68
16,TCTATAATATTTTTCACACACCATTTCCTTAAACAC [CACACA_site6747],8.26 ± 0.26
17,ATTTTTTTATTTTGAAGTACATAAACTTTATATATA [XGTACX_site1746],7.99 ± 0.43
18,ATTACATATGTCGCTTGTACGCATAATTTTTTTATA [XGTACX_site5782],8.04 ± 0.48
